Among the data in the antibiotic and cytotoxicity screens of Wong et al. (2023) are cytotoxicity call and growth inhibition call values, retold here.

The test system of one assay is HSkMC. The assay can be described thus: cytotoxicity call (relative viability < 0.9). The note with it: 10 µM.
Another assay deals with HepG2. The assay can be described thus: cytotoxicity call (relative viability < 0.9). The following applies: 10 µM.
For another assay, the system named is S. aureus RN4220. Kind of assay: growth inhibition call (relative growth <= 0.2). The note with it: 50 µM.

SMILES strings stand for the structures. This is one part of the list.

Turning to `Cc1cc(C(=O)Nc2cccc3c2O[C@@H](CN(C)S(C)(=O)=O)[C@H](C)CN([C@H](C)CO)C3=O)n(C)n1`, the cytotoxicity call with HSkMC and in the assay with HepG2 was “inactive” each time. For the same compound, the growth inhibition call with S. aureus RN4220 is “inactive”.
Take `C[n+]1cc2c3c(ccc2c2ccc4cc5c(cc4c21)OCO5)OCO3.[Cl-]`: the cytotoxicity call in the assay with HSkMC and in the assay with HepG2 was “active” in each case. The growth inhibition call in the assay on S. aureus RN4220 was “inactive”.
For the compound `Cc1noc(C)c1NC(=O)Nc1ccc2c(c1)C(=O)N([C@H](C)CO)C[C@@H](C)[C@H](CN(C)C(=O)Nc1cccc3ccccc13)OCCCC[C@H](C)O2`, the cytotoxicity call in the assay with HSkMC and with HepG2 was “inactive” throughout. Further, the growth inhibition call in the assay with S. aureus RN4220 is “inactive”.
As for `CCN1[C@@H]2O[C@@H]3O[C@H]4[C@H](O[C@H]3O[C@@H]2N(CC)S1(=O)=O)N(CC)S(=O)(=O)N4CC`, the cytotoxicity call in the assay with HSkMC and with HepG2 was “inactive” throughout. The growth inhibition call in the assay on S. aureus RN4220 was “inactive”.
Take `C[C@@H]1CCCCO[C@H](CN(C)Cc2ccc(C(=O)O)cc2)[C@@H](C)CN([C@H](C)CO)C(=O)c2cc(NC(=O)Nc3cccc4ccccc34)ccc2O1`: the cytotoxicity call in the assay with HSkMC and in the assay with HepG2 was “inactive” throughout. Further, the growth inhibition call in the assay with S. aureus RN4220 was “inactive”.
As for `COc1c(C)cnc2c1c(=O)n(CC(N)=O)c(=O)n2C`, the cytotoxicity call in the assay on HSkMC and in the assay with HepG2 was “inactive” throughout. Also, in the assay with S. aureus RN4220, the growth inhibition call is “inactive”.
For `COc1ccc(S(=O)(=O)Nc2cccc3c2O[C@H](CN(C)C(=O)Nc2c(C)noc2C)[C@@H](C)CN([C@H](C)CO)C3=O)cc1`, in the assay with HSkMC, the cytotoxicity call was “inactive”. The cytotoxicity call with HepG2 was “active”. For the same compound, in the assay with S. aureus RN4220, the growth inhibition call is “inactive”.
For the compound `C[C@@H]1CN([C@H](C)CO)S(=O)(=O)c2ccc(-c3cncnc3)cc2O[C@H]1CN(C)C(=O)C1CCCCC1`, the cytotoxicity call in the assay with HSkMC and in the assay with HepG2 was “inactive” in each case. For the same compound, the growth inhibition call with S. aureus RN4220 is “inactive”.
As to `C[C@H]1CN([C@@H](C)CO)S(=O)(=O)c2ccc(-c3ccc(C#N)cc3)cc2O[C@@H]1CN(C)C(=O)CN(C)C`, the cytotoxicity call with HSkMC and in the assay on HepG2 was “inactive” throughout. The growth inhibition call with S. aureus RN4220 was “inactive”.
In the case of `Cc1ccc(S(=O)(=O)N(C)C[C@@H]2Oc3c(NC(=O)c4ccncc4)cccc3C(=O)N([C@H](C)CO)C[C@H]2C)cc1`, the cytotoxicity call with HSkMC and in the assay on HepG2 was “inactive” throughout. Further, the growth inhibition call in the assay with S. aureus RN4220 was “inactive”.
With `O=C(C[C@H]1CC[C@H](NC(=O)Cc2ccccn2)[C@H](CO)O1)NCCc1ccncc1`, the cytotoxicity call in the assay on HSkMC and in the assay with HepG2 was “inactive” throughout. Besides, the growth inhibition call with S. aureus RN4220 was “inactive”.
`CC(C)C(=O)NNC(=O)c1ccccc1O`: the cytotoxicity call with HSkMC and in the assay with HepG2 was “inactive” in each case. For the same compound, the growth inhibition call with S. aureus RN4220 was “inactive”.
`CO[C@H]1O[C@H](CO)[C@@H](OC(=O)Nc2ccccc2)[C@@H]2OC(=O)[C@H](Cc3cccc(Br)c3)C/C=C/C[C@@H](Cc3cccc(Br)c3)C(=O)O[C@@H]12`: the cytotoxicity call in the assay on HSkMC and in the assay with HepG2 was “inactive” in each case. In the assay with S. aureus RN4220, the growth inhibition call was “inactive”.
In the case of `COc1ccc(S(=O)(=O)Nc2ccc3c(c2)C(=O)N([C@@H](C)CO)C[C@@H](C)[C@H](CN(C)Cc2ccc(Oc4ccccc4)cc2)O3)cc1`, the cytotoxicity call in the assay with HSkMC was “inactive”. Also, the cytotoxicity call in the assay on HepG2 is “active”. Moreover, the growth inhibition call in the assay with S. aureus RN4220 is “inactive”.
Consider `Cc1noc(C)c1NC(=O)Nc1ccc2c(c1)C(=O)N([C@H](C)CO)C[C@@H](C)[C@H](CN(C)S(=O)(=O)c1ccccc1)OCCCC[C@@H](C)O2`, for which the cytotoxicity call in the assay on HSkMC and in the assay on HepG2 was “inactive” each time. In addition, the growth inhibition call in the assay with S. aureus RN4220 was “inactive”.
Turning to `CN(C)CCCNC(=O)C[C@@H]1CC[C@H]2[C@@H](COC[C@H](O)CN2S(=O)(=O)c2ccccc2)O1`, the cytotoxicity call in the assay on HSkMC and in the assay on HepG2 was “inactive” throughout. The growth inhibition call in the assay with S. aureus RN4220 was “inactive”.
As for `C=CC[C@@H](CC(=O)N[C@@H](CO)Cc1ccccc1)C(=O)NCCOC(=O)[C@H](CC=C)CC(=O)OC(C)(C)C`, the cytotoxicity call with HSkMC and with HepG2 was “inactive” throughout. For the same compound, in the assay on S. aureus RN4220, the growth inhibition call is “inactive”.
For the compound `COc1ccc([Si](C)(C)[C@@H]2[C@@H](CCO)O[C@]3(C(=O)N(Cc4cccc(N5CCCCC5=O)c4)c4ccccc43)[C@H]2C)cc1`, the cytotoxicity call in the assay with HSkMC and with HepG2 was “inactive” each time. Moreover, the growth inhibition call in the assay on S. aureus RN4220 is “inactive”.
Take `C[C@H](CO)N1C[C@H](C)[C@H](CN(C)Cc2ccc(Oc3ccccc3)cc2)Oc2cc(-c3ccncc3)ccc2S1(=O)=O`: the cytotoxicity call with HSkMC and with HepG2 was “inactive” in each case. Moreover, the growth inhibition call in the assay with S. aureus RN4220 is “inactive”.
Take `C[C@@H]1CN([C@H](C)CO)C(=O)c2cccc(NC(=O)c3ccc(-c4nccs4)cc3)c2O[C@H]1CN(C)S(=O)(=O)c1cn(C)cn1`: the cytotoxicity call with HSkMC and with HepG2 was “inactive” in each case. Also, in the assay on S. aureus RN4220, the growth inhibition call was “inactive”.
Turning to `C[C@@H]1CCCCO[C@@H](CN(C)C(=O)Nc2cccc3ccccc23)[C@@H](C)CN([C@H](C)CO)C(=O)c2cc(NS(C)(=O)=O)ccc2O1`, the cytotoxicity call in the assay with HSkMC and with HepG2 was “inactive” throughout. In addition, in the assay with S. aureus RN4220, the growth inhibition call is “inactive”.
For the compound `C[C@H]1CCCCO[C@@H](CN(C)C(=O)NC2CCCCC2)[C@@H](C)CN([C@@H](C)CO)C(=O)c2cc(NS(=O)(=O)c3ccc(F)cc3)ccc2O1`, the cytotoxicity call in the assay on HSkMC and in the assay on HepG2 was “inactive” throughout. In the assay on S. aureus RN4220, the growth inhibition call is “inactive”.
On to `C[C@H]1CN([C@@H](C)CO)C(=O)Cc2cc(NC(=O)Cn3cnnn3)ccc2O[C@@H]1CN(C)C(=O)Nc1ccc(F)cc1`, for which the cytotoxicity call with HSkMC and in the assay on HepG2 was “inactive” throughout. For the same compound, the growth inhibition call in the assay on S. aureus RN4220 was “inactive”.
On to `C[C@@H]1CCCCO[C@H](CN(C)CC2CCCCC2)[C@H](C)CN([C@@H](C)CO)C(=O)c2cc(NC(=O)CCCCCC(=O)Nc3ccccc3N)ccc2O1`, for which the cytotoxicity call in the assay with HSkMC and in the assay with HepG2 was “inactive” each time. Further, in the assay with S. aureus RN4220, the growth inhibition call was “inactive”.
In the case of `O=c1nc(Nc2ccccc2)cn[nH]1`, the cytotoxicity call with HSkMC and with HepG2 was “inactive” throughout. The growth inhibition call in the assay with S. aureus RN4220 is “inactive”.
Consider `COc1ccc(NC(=O)N(C)C[C@@H]2OCCCC[C@H](C)Oc3ccc(NS(=O)(=O)c4ccccc4)cc3C(=O)N([C@@H](C)CO)C[C@@H]2C)cc1`, for which the cytotoxicity call in the assay on HSkMC and with HepG2 was “inactive” in each case. Besides, the growth inhibition call with S. aureus RN4220 is “inactive”.
Turning to `Cc1ccc(Oc2ccccc2)c(NC(=O)c2ccccc2)c1`, in the assay on HSkMC (human skeletal muscle cells), the cytotoxicity call is “inactive”. The cytotoxicity call with HepG2 is “active”. The growth inhibition call in the assay with S. aureus RN4220 is “inactive”.
As to `C[C@H]1CN([C@@H](C)CO)C(=O)c2cccc(NS(=O)(=O)c3ccc(F)cc3)c2O[C@@H]1CN(C)S(=O)(=O)c1ccc(F)cc1`, the cytotoxicity call with HSkMC and in the assay with HepG2 was “inactive” in each case. The growth inhibition call with S. aureus RN4220 was “inactive”.
